Assay results reported in PubChem BioAssay AID485294 (National Center for Advancing Translational Sciences (NCATS), 2010).
In all, about 370,000 compounds went through this assay and about 150 (0.041%) were called active. This list was built around the results that the source calls inconclusive (neither active nor inactive); the mix of calls is not that of the screen. Calls come from the whole dose curve; as a rule, active = well fitted inhibition curve with a large enough effect; inconclusive = small, poorly fitted or top-dose-only effect; inactive = flat fitted curve, though single readings scatter. Potencies of inconclusive entries are left out as doubtful fits.
Note: nearly all actives have a fitted effect of over 25% in size.
Potency is the fitted concentration of half-maximal effect; tags give direction and shape of the fitted curve.
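Throughout, for activity change, negative = inhibition: 0% = no-compound wells and -100% = no-enzyme wells.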

These compounds were tested against Beta-lactamase (Escherichia coli (strain K12)) (UniProt P00811) (assay: qHTS Inhibitors of AmpC Beta-Lactamase (assay with detergent)). Settings: AmpC hydrolysis of nitrocefin, absorbance 480 nm, 0.01% Triton; activity change, negative = inhibition: at 114 µM (top of the series).
Sequence of UniProt P00811 (P00811 whole entry, looked up): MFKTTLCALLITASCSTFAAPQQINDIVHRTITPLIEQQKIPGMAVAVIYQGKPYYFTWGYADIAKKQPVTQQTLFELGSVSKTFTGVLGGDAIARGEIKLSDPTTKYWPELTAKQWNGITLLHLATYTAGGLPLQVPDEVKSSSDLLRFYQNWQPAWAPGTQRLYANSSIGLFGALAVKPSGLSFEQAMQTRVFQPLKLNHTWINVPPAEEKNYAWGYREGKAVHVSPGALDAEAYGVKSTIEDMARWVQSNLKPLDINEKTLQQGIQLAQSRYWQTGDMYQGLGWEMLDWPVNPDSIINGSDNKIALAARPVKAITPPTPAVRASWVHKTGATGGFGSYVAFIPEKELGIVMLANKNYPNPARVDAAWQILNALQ
Method in brief: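 AmpC (5.3 nM in the dispensed reagent) in 20 mM phosphate pH 7.0 with 0.01% (detergent screen) or 0.0001% Triton X-100 was preincubated with compounds for 15 min at room temperature. Nitrocefin was then added from an 800 uM solution, and hydrolysis was followed at 480 nm.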
In the case of `COc1ccc(-c2c3c(nc4sc5c(=O)[nH]c(C)nc5c24)CCC3)cc1`, the Potency was inconclusive [inhibitor, full curve, poor fit].
In the case of `Cc1c(Cc2ccccc2)c(=O)oc2c(C)c(OCC(=O)Nc3ccc(C#N)cc3)ccc12`, the “activity change, negative = inhibition” value was inactive: -7.1%.
For `COc1ccc(C(C(=O)NC2CCCC2)N2CCc3ccccc32)cc1` (stereo not given), the Potency was inconclusive [inhibitor, full curve, poor fit].
`ClC(Cl)c1nnc(-c2ccccc2)c(-c2c[nH]c3ccccc23)n1` was tested, and the “activity change, negative = inhibition” value was inactive: -13.2%.
For `O=[N+]([O-])c1cc(C(F)(F)F)cc([N+](=O)[O-])c1NCCCNc1ccc([N+](=O)[O-])c2cccnc12`, the Potency was inconclusive [inhibitor, single point].
`O=C(O)C1CC=CCC1C(=O)Nc1cccc(C(=O)N2CCCCC2)c1` (stereo not given) was tested, and the Potency was inconclusive [inhibitor, partial curve].
`COc1cc(-c2noc(CCC(=O)Nc3cc(C)ccc3C)n2)cc(OC)c1OC` was tested, and the “activity change, negative = inhibition” value was inactive: 7.72%.
For `COc1cc(C(C#N)N2CCOCC2)ccc1O` (stereo not given), the Potency was inconclusive [inhibitor, full curve].
In the case of `CCOc1ccc(OCc2ccc(C(=O)NC(C)(C)C)o2)cc1`, the “activity change, negative = inhibition” value was inactive: 1.51%.
In the case of `O=C(NCCCN1CCCC1=O)c1cc(-c2cccnc2)nc2ccc(Cl)cc12`, the Potency was inconclusive [inhibitor, single point].
`CCC1=NC(c2ccc(OC)cc2)N(O)C1(C)C` (stereo not given) was tested, and the Potency was inconclusive [inhibitor, full curve, poor fit].
`C=C1C(C(=O)N2CCOCC2)C1C(=O)N1CCOCC1` (stereo not given) was tested, and the Potency was inconclusive [inhibitor, partial curve, poor fit].
For `O=C(Nc1cccnc1)C1CCN(S(=O)(=O)c2ccc(Cl)cc2)CC1`, the Potency was inconclusive [inhibitor, full curve].
With `O=C(Nc1ccc(Cl)cc1)Nc1nnc(CSCc2ccccc2)s1` the Potency was inconclusive [inhibitor, single point].
In the case of `COc1ccc(CCN(C)C(=O)c2cc(S(=O)(=O)NCc3ccccc3)ccc2C)cc1OC`, the “activity change, negative = inhibition” value was inactive: -2.58%.
In the case of `CC(C)C(C)(C#N)NC(=O)CSc1nc2scc(-c3ccco3)c2c(=O)n1-c1ccccc1` (stereo not given), the Potency was inconclusive [inhibitor, full curve, poor fit].
For `CCCCNC(=O)c1onc(CSc2cccc(C)c2)c1C(=O)O`, the Potency was inconclusive [inhibitor, single point].
In the case of `CCOC(=O)c1ccc(NC(=O)CSc2nnc(C3CC3)n2CC)cc1`, the Potency was inconclusive [inhibitor, partial curve, poor fit].
In the case of `COc1cc(OC)c(OC)cc1/C=C/c1cc(C(=O)O)c2ccccc2n1`, the “activity change, negative = inhibition” value was inactive: 1.86%.
With `C=C(C)C(=O)NNc1ccccc1` the Potency was inconclusive [inhibitor, full curve, poor fit].
In the case of `CCn1c(=O)c([N+](=O)[O-])c(NCCN(C)C)c2ccccc21`, the “activity change, negative = inhibition” value was inactive: 5.17%.
In the case of `COc1ccc(F)c(CN2CCC(n3nccc3NC(=O)CCCc3ccccc3)CC2)c1`, the Potency was inconclusive [inhibitor, full curve, poor fit].
For `COc1ccccc1NC(=O)c1ccc(CN2CCOCC2)cc1`, the Potency was inconclusive [inhibitor, partial curve, poor fit].
In the case of `O=c1c(-c2ccccc2)[n+]([O-])c2ccccc2n1O`, the Potency was inconclusive [inhibitor, partial curve, poor fit].
For `Cn1c(=O)n(C)c2cc(N3CCOCC3)c(NC(=O)c3ccccc3Br)cc21`, the “activity change, negative = inhibition” value was inactive: -0.257%.
With `COC(=O)C(/C=N/OCc1ccc([N+](=O)[O-])cc1)NC(=O)c1cccc(Cl)c1` (stereo not given) the Potency was inconclusive [inhibitor, single point].
In the case of `COc1cccc(CN2CCC(C(=O)Nc3ccc(-c4cccc(C)c4)cc3)CC2)c1O`, the “activity change, negative = inhibition” value was inactive: -13.9%.
For `COc1cccc(N2CCN(C(=O)c3cccn4c(=O)c5c(C)c(C)sc5nc34)CC2)c1`, the Potency was inconclusive [inhibitor, single point].
With `COc1ccc(CNC(=O)c2cccc(S(=O)(=O)N3CCN(C)CC3)c2)cc1` the Potency was inconclusive [inhibitor, single point].
In the case of `CN1CCN(c2ccc([N+](=O)[O-])c(-n3nc(-c4ccccc4)c4ccccc4c3=O)c2)CC1`, the Potency was inconclusive [inhibitor, single point].
For `CC(/C=N/NC(=O)c1cccnc1)=C\c1ccccc1`, the “activity change, negative = inhibition” value was inactive: -3.82%.
With `CCCn1c(SCC(=O)NC2CCCC(C)C2C)n[nH]c1=O` (stereo not given) the Potency was inconclusive [inhibitor, full curve, poor fit].
With `C=C1CSc2nc(=O)c3c4c(sc3n21)CCC4` the Potency was inconclusive [inhibitor, full curve, poor fit].
With `O=C(O)COCc1nc2ccccc2[nH]1` the Potency was inconclusive [inhibitor, full curve, poor fit].
`COc1ccc(CCNC(=O)COc2cc(O)c3c(c2)OC(C)(C)CC3=O)cc1` was tested, and the Potency was inconclusive [inhibitor, full curve, poor fit].
